Measurements reported in PubChem BioAssay AID624417 (National Center for Advancing Translational Sciences (NCATS), 2012).
The whole screen tested about 410,000 compounds, of which about 6,400 (1.6%) were called active. Inconclusive means that the source gave no clear call. Such entries were picked first, then a sample of the others. Calls come from the whole dose curve; as a rule, active = well fitted inhibition curve with a large enough effect; inconclusive = small, poorly fitted or top-dose-only effect; inactive = no such curve, though single readings can be large or run the other way. Potencies of inconclusive entries are left out as doubtful fits.

Target: Glucagon-like peptide 1 receptor (Homo sapiens) (UniProt P43220)
Chain of UniProt P43220 (P43220 whole entry, looked up): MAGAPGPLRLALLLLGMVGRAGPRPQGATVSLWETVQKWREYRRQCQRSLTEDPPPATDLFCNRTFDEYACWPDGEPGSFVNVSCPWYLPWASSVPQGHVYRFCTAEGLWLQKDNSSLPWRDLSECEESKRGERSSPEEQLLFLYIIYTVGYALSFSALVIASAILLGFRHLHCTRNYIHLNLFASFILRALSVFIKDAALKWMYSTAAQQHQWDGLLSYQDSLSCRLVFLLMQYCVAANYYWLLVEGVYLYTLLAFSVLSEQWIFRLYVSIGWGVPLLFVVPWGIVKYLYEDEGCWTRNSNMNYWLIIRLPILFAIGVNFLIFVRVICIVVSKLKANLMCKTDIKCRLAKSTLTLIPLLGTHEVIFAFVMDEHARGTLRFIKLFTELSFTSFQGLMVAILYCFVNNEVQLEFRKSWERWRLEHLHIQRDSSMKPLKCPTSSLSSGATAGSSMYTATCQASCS
Assay: qHTS of GLP-1 Receptor Inverse Agonists (Inhibition Mode); note: nearly all actives have a fitted effect of over 55% in size
Conditions: HEK293 GLP-1R CRE-luciferase, luminescence, 24 h, GLP-1R form is constitutively active; series mostly up to 38.3 µM
How it was run: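 HEK293 cells stably co-expressing constitutively active GLP-1R and a cAMP-responsive luciferase reporter were seeded in DMEM with 10% Nu serum, given compounds after 12 h, and incubated 24 h at 37 deg C. Luminescence was then read.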
Potency is the fitted concentration of half-maximal effect; tags give direction and shape of the fitted curve.

Row | SMILES | Potency
1 | CN(c1ccc(OCC(=O)Nc2ccccc2C(=O)O)cc1)S(=O)(=O)c1ccc(Cl)cc1 | inconclusive [inhibitor, full curve, poor fit]
2 | C=CCN1C(c2cccc(C(F)(F)F)c2)=CS/C1=C(\C#N)c1nnc(N2CCOCC2)n1-c1ccccc1 | inconclusive [inhibitor, single point]
3 | OC[C@@H]1[C@@H](c2ccc(Cl)cc2)C(c2ccccc2)=NN1c1ccccc1 | inconclusive [inhibitor, single point]
4 | Cc1ccc(-n2c(C)nc3ccsc3c2=O)cc1 | inactive
5 | CC(=O)S[C@@H]1CC2=CC(=O)CC[C@]2(C)[C@H]2CC[C@@]3(C)[C@@H](CC[C@@]34CCC(=O)O4)[C@H]12 | inconclusive [inhibitor, partial curve, poor fit]
6 | Cc1ccc(C(=O)N2CCc3cc(CNC(=O)c4ccccc4F)ccc32)cc1 | inactive
7 | COc1cc(CNC(=O)c2cc(-c3cc(F)ccc3OC(C)C)n[nH]2)cc(OC)c1 | inconclusive [inhibitor, single point]
8 | CCOc1ccc(C2=C(C(C)=O)Sc3nnc(C)n3N2C(C)=O)cc1 | inactive
9 | O=[N+]([O-])c1ccc(S(=O)(=O)NCC2CC3CCC2C3)cc1 (stereo unspecified) | inconclusive [inhibitor, single point]
10 | C/C(=N\NC(=O)C(c1ccccc1)c1ccccc1)c1ccc(O)cc1 | inactive
11 | COc1cccc(C(=O)NN/C(C)=C/C(=O)C(F)(F)C(F)(F)C(F)(F)F)c1 | inconclusive [inhibitor, full curve, poor fit]
12 | Cc1ccc(S(=O)(=O)N2CCN(C(=O)Cc3ccccc3)CC2)cc1C | inconclusive [inhibitor, single point]
13 | O=C(NCCC1=CCCCC1)c1coc(=O)c(Br)c1 | inconclusive [inhibitor, single point]
14 | COc1ccccc1S(=O)(=O)Cc1ccc(C(=O)NCCCN2CCN(c3ccc(F)cc3)CC2)o1 | inconclusive [inhibitor, partial curve, poor fit]
15 | CC(CNC(=O)c1cc(COc2c(F)cccc2F)on1)Oc1cccnc1 (stereo unspecified) | inconclusive [inhibitor, single point]
16 | CN(Cc1cccc2cnccc12)C(=O)CCc1nnc(CCc2ccccc2)o1 | inactive
17 | COc1ccc(NC(=O)c2cc(C3CCCCN3S(=O)(=O)c3ccccc3)on2)c(C)c1 (stereo unspecified) | inconclusive [inhibitor, partial curve, poor fit]
18 | Cc1ccc(NC(=O)N(Cc2c[nH]c3ccccc23)C2CCCCCC2)cc1C | inconclusive [inhibitor, full curve, poor fit]
19 | Cc1ccc(C(=O)c2cc([N+](=O)[O-])ccc2N2CCOCC2)cc1C | inconclusive [inhibitor, partial curve, poor fit]
20 | O=C(O)C1C2C=CC(O2)C1C(=O)NCc1ccc(Cl)cc1 (stereo unspecified) | inactive
21 | Cc1cc(F)ccc1S(=O)(=O)N1CCC2(CC1)OCCN2S(=O)(=O)c1cccs1 | inconclusive [inhibitor, single point]

Row | SMILES | Potency
22 | Nc1ncc(Br)cc1S(=O)(=O)N1CCCCCC1 | inconclusive [inhibitor, partial curve]
23 | CC(C)C(C)NC(=O)COc1ccc(OCc2ccccc2)cc1 (stereo unspecified) | inconclusive [inhibitor, single point]
24 | CN(C)CCN=Cc1c(O)n(Cc2ccc3c(c2)OCO3)c(=O)c2ccccc12 | inconclusive [inhibitor, single point]
25 | CCCCN(C(=O)C1CC(=O)N(c2ccc3c(c2)OCCO3)C1)c1c(N)n(CCCC)c(=O)[nH]c1=O (stereo unspecified) | inactive
26 | CCCn1c(=N)c(C(=O)NCc2ccccc2)cc2c(=O)n3cccc(C)c3nc21 | inactive
27 | CC(C)c1ccc(NC(=O)C2Cc3c(-c4ccc(Cl)cc4)ccnc3O2)cc1 (stereo unspecified) | inconclusive [inhibitor, full curve, poor fit]
28 | CC(C)C(=O)N1CCN(c2ccc([N+](=O)[O-])c(NC(C)c3ccccc3)c2)CC1 (stereo unspecified) | inconclusive [inhibitor, single point]
29 | CCOC(=O)c1c(NC(=O)CCc2ccc(CC)o2)sc(C)c1C | inconclusive [inhibitor, full curve, poor fit]
30 | O=C(Nc1ccc(N2CCCCC2)cc1)c1ccc2c(c1)OCCO2 | inconclusive [inhibitor, single point]
31 | O=C(Cc1ccc2c(c1)CCCC2)Nc1ccccc1Br | inconclusive [inhibitor, single point]
32 | CCn1cc(CCC(=O)NC2CCCC2)c2ccccc21 | inconclusive [inhibitor, partial curve, poor fit]
33 | O=C(COC(=O)/C=C/c1ccc(Cl)cc1)NC(=O)NCc1ccccc1 | inconclusive [inhibitor, single point]
34 | Clc1ccc(-c2nnc3ccccn23)cc1 | inactive
35 | CC(C)(C)c1cccc(/C=N/O)c1O | inconclusive [inhibitor, partial curve, poor fit]
36 | N/C(=N\OC(=O)c1cc(Cl)ccc1Cl)c1ccccn1 | inconclusive [inhibitor, partial curve]
37 | CCCC(=O)Nc1sc(-c2ccccc2)c(-c2ccccc2)c1C(=O)O | inconclusive [inhibitor, partial curve, poor fit]
38 | CC(C)(C)N(NC(=O)OCc1ccccc1)C(=O)c1ccccc1Cl | inconclusive [inhibitor, partial curve, poor fit]
39 | CCOCCc1nn2c(=O)cc(COC(=O)c3ccccc3Br)nc2s1 | inactive
40 | CCCCCOC(=O)C1=C(C)NC(=O)NC1c1ccccc1OCC (stereo unspecified) | inconclusive [inhibitor, single point]
41 | O=C(Nc1ccc(F)cc1)N1CCN(c2nc3ccccc3s2)CC1 | inconclusive [inhibitor, partial curve, poor fit]
